About 14,000 (4.5%) of roughly 310,000 compounds showed an effect of 50% or more. Effects have a minus sign here. This is one part of the list.
Target: human ether-à-go-go-related gene (hERG) potassium channel (human, UniProt Q12809)
Assay: primary screen, population patch clamp on CHO cells stably expressing hERG
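Further: peak tail current of the secondary pulse compared with the same well before compound.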

human ether-à-go-go-related gene (hERG) potassium channel, sequence (Q12809 whole entry, looked up): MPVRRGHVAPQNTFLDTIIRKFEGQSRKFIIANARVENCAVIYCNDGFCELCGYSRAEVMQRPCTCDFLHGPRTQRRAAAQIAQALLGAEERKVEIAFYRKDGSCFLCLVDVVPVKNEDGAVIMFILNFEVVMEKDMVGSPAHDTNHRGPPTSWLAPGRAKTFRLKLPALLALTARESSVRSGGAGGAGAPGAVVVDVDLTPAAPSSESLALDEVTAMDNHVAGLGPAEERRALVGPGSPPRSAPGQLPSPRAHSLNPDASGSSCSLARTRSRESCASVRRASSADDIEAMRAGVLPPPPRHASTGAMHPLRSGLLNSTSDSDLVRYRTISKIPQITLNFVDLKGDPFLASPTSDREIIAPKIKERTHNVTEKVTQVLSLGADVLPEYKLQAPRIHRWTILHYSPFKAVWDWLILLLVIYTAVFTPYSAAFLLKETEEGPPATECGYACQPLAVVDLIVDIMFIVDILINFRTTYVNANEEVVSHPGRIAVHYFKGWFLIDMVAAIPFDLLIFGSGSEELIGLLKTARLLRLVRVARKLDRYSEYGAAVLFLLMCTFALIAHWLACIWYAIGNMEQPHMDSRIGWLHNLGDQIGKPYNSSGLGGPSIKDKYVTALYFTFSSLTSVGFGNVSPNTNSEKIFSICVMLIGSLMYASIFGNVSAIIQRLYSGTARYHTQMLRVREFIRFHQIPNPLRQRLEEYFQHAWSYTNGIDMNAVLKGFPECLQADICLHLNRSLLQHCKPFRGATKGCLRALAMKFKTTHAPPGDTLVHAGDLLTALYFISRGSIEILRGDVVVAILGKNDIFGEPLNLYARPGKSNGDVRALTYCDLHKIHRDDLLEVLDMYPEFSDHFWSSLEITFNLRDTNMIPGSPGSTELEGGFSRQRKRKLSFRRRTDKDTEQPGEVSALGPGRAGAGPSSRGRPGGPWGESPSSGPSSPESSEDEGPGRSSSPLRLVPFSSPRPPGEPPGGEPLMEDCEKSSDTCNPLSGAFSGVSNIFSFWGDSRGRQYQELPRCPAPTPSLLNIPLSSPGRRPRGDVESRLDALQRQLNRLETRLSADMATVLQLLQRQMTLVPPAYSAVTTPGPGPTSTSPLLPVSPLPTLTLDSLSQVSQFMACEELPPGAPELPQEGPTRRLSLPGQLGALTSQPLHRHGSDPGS

| SMILES | hERG current change (%, negative = inhibition) at 10uM [%] |
| --- | --- |
| O=C(NCc1ccco1)c1ccc2c(=O)n(-c3ccccc3)c(=O)n(Cc3cccc(F)c3)c2c1 | -4.93 |
| C#CC[N+](C)(C)CC#Cc1ccc(Cl)cc1.[Br-] | 0.00248 |
| O=C(NNC(=O)c1cccs1)c1ccncc1 | 29.7 |
| CCOC(=O)Cc1csc(NC(=O)NC2(C(F)(F)F)Oc3ccccc3O2)n1 | 5.19 |
| COc1ccc(/C=N/NC(=O)c2ccc(N(C)S(=O)(=O)c3ccccc3)cc2)c(OC)c1 | 6.66 |
| CCCC(=O)Nc1ccc(C(=O)N/N=C/c2cccnc2)cc1 | -8.24 |
| CC(C)N(Cc1nc2ccccc2[nH]1)C(C)C | 2.07 |
| CC(C)(C)C(C(=O)O)N1CCS(=O)(=O)CC1 (centres unmarked) | 12.3 |
| CS(=O)(=O)c1ccc2nc(NC(=O)CCC(=O)c3cccs3)sc2c1 | 1.07 |
| CCOC(=O)c1cnc(Nc2nc3ccccc3o2)nc1CSC(=S)N(CC)CC | 13.3 |
| CCOc1ccc(-n2c(-c3ccccc3)c[nH]c2=S)cc1 | 20.6 |
| CCOc1ccccc1NC(=O)CCc1ccc(C)o1 | -3.46 |
| CCOC(=O)C1(Cc2ccccc2C)CCCN(C(=O)CCC(=O)OC)C1 (centres unmarked) | 14.9 |
| O=C(CSc1nc(-c2ccccc2Cl)ns1)Nc1ccc2c(c1)OCO2 | -13.4 |
| Cc1cc(C)n(-c2cc(C(C)(C)C)nc3c(-c4ccccc4)cnn23)n1 | 14.6 |
| O=C(NNC(=S)NC(=O)c1cccnc1)c1ccccc1 | 11.3 |
| CCC(C)(C)NC(=O)CN(C(=O)C(=O)Nc1ccc2c(c1)OCCO2)C1CC1 | 15.4 |
| N/C(=N\OC(=O)c1ccc(Br)cc1)c1ccccc1 | 4.79 |
| CS/C(=C\C(=O)c1ccco1)Nc1ccccc1Cl | 3.23 |
| O=C1/C(=C\c2ccccn2)SC(=S)N1c1ccc(S(=O)(=O)Nc2nccs2)cc1 | -12.1 |
| CCOCCCNC(=O)C(NC(=O)Cc1cccs1)c1ccc(C)cc1 (centres unmarked) | 8.53 |
| CCOc1cc(S(=O)(=O)NCc2ccccc2)ccc1F | -10.3 |

| SMILES | hERG current change (%, negative = inhibition) at 10uM [%] |
| --- | --- |
| CCOC(=O)c1c(C)nc2ncccn12 | -5.18 |
| CCNC(=S)Nc1cccc([N+](=O)[O-])c1 | -2.24 |
| COc1ccc(C(CC(=O)NCc2ccccc2)Sc2n[nH]c(-c3ccc(Cl)cc3)n2)cc1 (centres unmarked) | 15.5 |
| O=c1c2ccccc2[nH]c(=S)n1CCCN1CCN(c2ccccc2)CC1 | -19.7 |
| O=c1[nH]nnc2sc3c(c12)CCCC3 | -3.79 |
| CCOCCCNC(=O)c1ccc(OC(C)=O)cc1 | 0.348 |
| Cc1ccc(NC(=O)CSc2ccc(S(=O)(=O)N3CCCC3)cn2)cc1F | 4.89 |
| CN1C(=O)CSc2ccc(NC(=O)N3CCOCC3)cc21 | -27.4 |
| O=C(Nc1ccccc1N1CCN(C(=O)c2ccccc2)CC1)c1ccc(Br)o1 | -63.5 |
| CC(C)CC(=O)NC(=S)Nc1ccccc1F | 10.1 |
| Cc1ccc(NC(=O)CCc2c[nH]c3ccccc23)nc1 | -12.7 |
| Cc1cc(Cl)ccc1OCCCC(=O)OCC(=O)Nc1cccc(S(N)(=O)=O)c1 | -27.1 |
| CCOc1ccc(NC(=O)c2sccc2-n2cccc2)cc1 | 13.8 |
| COc1ccc(N2CCN(C(=O)Cn3ncc4c([nH]c5ccccc54)c3=O)CC2)cc1 | 9.02 |
| CCCCCCn1c(=O)c(F)cn(Cc2ccc(OC)c([N+](=O)[O-])c2)c1=O | -40.3 |
| C[C@H](O)[C@@]1(O)CC[C@H]2[C@@H]3CC[C@@H]4C[C@H](O)CC[C@]4(C)[C@H]3CC[C@@]21C | -0.0961 |
| C[C@H](NC(=O)[C@H]1N2C(=O)c3ccccc3C2SC1(C)C)C(=O)N1CCCCC1 (some centres unmarked) | 14.9 |
| Cc1cc(C)c(NC(=O)CSc2nc(COc3ccccc3)nc3ccccc23)c(C)c1 | 12.4 |
| CCN(CC)C(=O)CSc1nc(-c2ccco2)cc(C(F)(F)F)c1C#N | 15 |
| CSC1=NCCN1C(=O)c1cccs1 | 10.1 |
| O=C(c1ccccn1)c1cc2ccccc2n1S(=O)(=O)c1ccccc1 | 7.97 |
| COc1ccc(C2=CC(=O)C[C@H](c3ccc(F)cc3)C2)c(F)c1F | 2.81 |
